The RNAGym collection of RNA variant scans (doi:10.1073/pnas.2313332121)
Variants at the floor of the assay are shown more often than the library holds them.

B1: TPR 5TU (parent)
chain: GGAUCUUCUCGAUCUAACAAAAAAGACAAAUCUGCCACAAAGCUUGAGAGCAUCUUCGGAUGCAGAGGCGGCAGCCUUCGGUGGCGCGAUAGCGCCAACGUUCUCAACUAUGACACGCAAAACGCGUGCUCCGUUGAAUGGAGUUUAUCAUG

Variants of: B1
Assay: polymerase ribozyme fitness, log enrichment relative to wild type (log ratio); higher = more active; in vitro selection for triplet polymerase activity
Procedure, shortened: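 Streptavidin-bead capture of gel-excised extended constructs, followed by RT-PCR, closed a single triplicate in vitro selection round. That round began by annealing PCR-built, transcribed mutant libraries of each subunit of a heterodimeric triplet polymerase ribozyme with a biotinylated primer, the partner subunit and triplets, then incubating them frozen at −7 °C. After Illumina sequencing of inputs and outputs, genotypes needed ≥10 input reads and ≥1 read per output. Fitness is the base-2 logarithm of genotype enrichment over wild-type enrichment, using inverse-variance-weighted replicate averages.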

| Variant | polymerase ribozyme fitness (log ratio) |
| --- | --- |
| G58C C79U C85A G88U C96U A110G | ≤ -4.2 |
| G58C A60U C79A A137G U145G | ≤ -4.2 |
| G59C A97U | -0.431 |
| G58A C63U G80A C93A C96U | ≤ -4.2 |
| G59A C129A C131G | ≤ -4.2 |
| G58A C95U C96G | -1.01 |
| G58A U82C G92C A110U G136A | ≤ -4.2 |
| C57G C96A | -0.472 |
| C57G U78G C85U A113C G141C | ≤ -4.2 |
| G58C A60G G67A C69A G92U G112A G143C | ≤ -4.2 |
| C57G U77C G84A U134A | ≤ -4.2 |
| G59C C75A G84A A122C | ≤ -4.2 |
| C57G C69U C76A G92A U139A | ≤ -4.2 |
| C57G G83A G124U G141A | -1.22 |
| G58A G71A C116G U139G U145G | ≤ -4.2 |
| G58A G74A G94U G140U G141A | ≤ -4.2 |
| C57U C118G U145C | -0.881 |
| G59A G88U | -3.96 |
| G59A G88A | -4.04 |
| G58C C96U | -1.02 |
| C57G U78A G84A G94C C103U C105A G133U G140U U144C | ≤ -4.2 |

| Variant | polymerase ribozyme fitness (log ratio) |
| --- | --- |
| G59A C76G U90G C99G | ≤ -4.2 |
| C57G A150G | -1.23 |
| G59A G88U C116G | -3.56 |
| G58C G80C A91G C96A | ≤ -4.2 |
| C57G G80C A142C | ≤ -4.2 |
| G59A G92U U104C A121C | -2.09 |
| G58C A91C C125G | ≤ -4.2 |
| G59C A60C A66G C93A U144A C149G | ≤ -4.2 |
| G58C U78G C85G A106U A113G U144C | ≤ -4.2 |
| G58A A107U G126U C149G | ≤ -4.2 |
| G58A A89G G94A | -1.91 |
| G58A A60C G62A C76G C93A U134C | ≤ -4.2 |
| G59A A60C C87U G100U C103G C116U C125A G143A | ≤ -4.2 |
| G58A A97G U130G G140C U145G | ≤ -4.2 |
| C57U C96U C103U G117U G136A G141U | ≤ -4.2 |
| C57U C69U C93U C103G U151A | ≤ -4.2 |
| C57U C75U G83C C105G | ≤ -4.2 |
| C57U G92A U134A A138U | ≤ -4.2 |
| C57U C75A G83U C96G A97U A98U A119G G124U U134A | ≤ -4.2 |
| C57G G74C A119U | ≤ -4.2 |
| C57U G71U C79G | ≤ -4.2 |

| Variant | polymerase ribozyme fitness (log ratio) |
| --- | --- |
| C57U C96U | -0.201 |
| C57U G59A G67C G94C | ≤ -4.2 |
| C57U C85G C99U G128A | ≤ -4.2 |
| C57G G59A U78G G84A | ≤ -4.2 |
| G58A U61A G62A C87U U90A U102C C131G A138U U148C | ≤ -4.2 |
| G58C G59A A60G A106G A107C | ≤ -4.2 |
| G59C A64U C75U C132U | ≤ -4.2 |
| C57U C95A G112U U151A | -4.06 |
| C57G G67A C85A U139C | ≤ -4.2 |
| G58C C85A G133U G143U | ≤ -4.2 |
| C57G G71A A122C G133U | ≤ -4.2 |
| G58C C72U G80C G124A G133U U139G G140U C149U | ≤ -4.2 |
| G59A G70U C93G A113U | ≤ -4.2 |
| G58C G140C | -4.02 |
| C57G C103U A121C A142U C149U | ≤ -4.2 |
| C57G G86C A89C C116U A122C | ≤ -4.2 |
| C57G G65A G80A A89G G94C C99G G143U | ≤ -4.2 |
| G58C A137G G140C | ≤ -4.2 |
| G58C C87U U135A | -2.15 |
| C57G C103G | -2.16 |
| G58C U102A C114A | -4.12 |

| Variant | polymerase ribozyme fitness (log ratio) |
| --- | --- |
| C57G G86U | -1.26 |
| G58U C105U U134A A137U U144A | ≤ -4.2 |
| C57U G59A C93A G117U | ≤ -4.2 |
| G58A G83A C87U U101G G141C | -3.39 |
| G59C C69U C93G G100A G124U | ≤ -4.2 |
| G59A U77A U101G A120C A121U U148C | ≤ -4.2 |
| C57G C76A C95U C129G A137C U144G | ≤ -4.2 |
| C57U A91U C99A U101G U130G G133C C149A | ≤ -4.2 |
| C57G G81U C85G C96U U134A | -4.03 |
| G58U G152U | -2.71 |
| C57U G81A A106U A107U A150G | ≤ -4.2 |
| C57U C75G C93U C99U | ≤ -4.2 |
| C57U G67C C95A A97G U151A | ≤ -4.2 |
| C57U U111G A137U | ≤ -4.2 |
| G58C A73G C87G A113G | ≤ -4.2 |
| C57U G67A C79G C85U A110C | ≤ -4.2 |
| C57U C96G C108G U144G | ≤ -4.2 |
| C57G C125A | -0.508 |
| C57G C96U A121C A138C U144A | ≤ -4.2 |
| G59A A60U C75G U90G | ≤ -4.2 |
| G58U G94U G140U | -3.9 |
